# In the supplement of paper PMC8728848:
# The list shows a part of the results.
# B1: SP16664D-bth-476-27-476 (Bacteroides thetaiotaomicron) (protein)
# chain: DDLEVGKNIDESAYSGIYENNAYLRDGKSNLVSKVVELHGETYATTVKMGLSKTPNTATSAKVKIDAAYLETYNKAHNTDFALYPQDLVTFANEGILTVNANTKSAEVEMTIRAGEGLQEDKTYAIPVAISDQSSDITIKDEDAKHCIYLVKDMRNAGDAYKGEGVMQGYLFFEVNDVNPLNTLSFQLENGKLLWDVVVLFAANINYDAEAGRPRVQCNPNVQYLLDNNETLLQPLRRRGVKVLLGLLGNHDITGLAQLSEQGAKDFAREVAQYCKAYNLDGVNYDDEYSNSPDLSNPSLTNPSTAAAARLCYETKQAMPDKLVTVFDWGQMYGVATVDGVDAKEWIDIVVANYGSAAYPIGQMTKKQCSGISMEFNLGGGGSLSASKAQSMIDGGYGWFMGFAPSPAKYGSVFSRLQGGGEVLYGSNVAAPTIFYKKNDPTPYKYPDDL
# Assays:
# Assay in all cases: glycan array binding signal (z-score within array); higher = stronger binding
# Conditions in all cases: glycan notation: IUPAC condensed, linker removed
# [1] = molecular target: Neu5Ac(a2-3)GalNAc
# Method in brief: (§1)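 Glycan array data were curated from 3228 arrays in the Consortium for Functional Glycomics database and kept only where the protein sequence was available. Glycan names were converted to IUPAC-condensed notation, and columns mapping to the same glycan were averaged. The binding signal is a within-array Z-score, averaged across arrays of the same protein sequence at different concentrations or buffers and across linkers. Negative Z-scores can be read as non-binding.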
# [2] = molecular target: Neu5Ac(a2-3)GalNAc(b1-4)GlcNAc
# Method in brief: as §1
# [3] = molecular target: Neu5Ac(a2-3)[GalNAc(b1-4)]Gal(b1-4)Glc
# Method in brief: as §1
# [4] = molecular target: Neu5Ac(a2-3)[GalNAc(b1-4)]Gal(b1-4)GlcNAc
# Method in brief: as §1
# [5] = molecular target: Neu5Ac(a2-3)[GalNAc(b1-4)]Gal(b1-4)GlcNAc(b1-3)GalNAc
# Method in brief: as §1
# [6] = molecular target: Neu5Ac(a2-3)[Neu5Ac(a2-6)]GalNAc
# Method in brief: as §1
# [7] = molecular target: Neu5Ac(a2-6)Gal
# Method in brief: as §1
# [8] = molecular target: Neu5Ac(a2-6)Gal(b1-3)GlcNAc(b1-3)[Gal(b1-4)GlcNAc(b1-6)]Gal(b1-4)Glc
# Method in brief: as §1
# [9] = molecular target: Neu5Ac(a2-6)Gal(b1-4)Glc
# Method in brief: as §1
# [10] = molecular target: Neu5Ac(a2-6)Gal(b1-4)GlcNAc
# Method in brief: as §1
# [11] = molecular target: Neu5Ac(a2-6)Gal(b1-4)GlcNAc(b1-2)Man
# Method in brief: as §1
# [12] = molecular target: Neu5Ac(a2-6)Gal(b1-4)GlcNAc(b1-2)Man(a1-3)Man(b1-4)GlcNAc(b1-4)GlcNAc
# Method in brief: as §1
# [13] = molecular target: Neu5Ac(a2-6)Gal(b1-4)GlcNAc(b1-2)Man(a1-3)[Gal(b1-4)GlcNAc(b1-2)Man(a1-6)]Man(b1-4)GlcNAc(b1-4)GlcNAc
# Method in brief: as §1
# [14] = molecular target: Neu5Ac(a2-6)Gal(b1-4)GlcNAc(b1-2)Man(a1-3)[GlcNAc(b1-2)Man(a1-6)]Man(b1-4)GlcNAc(b1-4)GlcNAc
# Method in brief: as §1
# [15] = molecular target: Neu5Ac(a2-6)Gal(b1-4)GlcNAc(b1-2)Man(a1-3)[GlcNAc(b1-4)][Neu5Ac(a2-6)Gal(b1-4)GlcNAc(b1-2)Man(a1-6)]Man(b1-4)GlcNAc(b1-4)GlcNAc
# Method in brief: as §1
# [16] = molecular target: Neu5Ac(a2-6)Gal(b1-4)GlcNAc(b1-2)Man(a1-3)[Man(a1-6)]Man(b1-4)GlcNAc(b1-4)GlcNAc
# Method in brief: as §1
# [17] = molecular target: Neu5Ac(a2-6)Gal(b1-4)GlcNAc(b1-2)Man(a1-3)[Neu5Ac(a2-3)Gal(b1-4)GlcNAc(b1-2)Man(a1-6)]Man(b1-4)GlcNAc(b1-4)GlcNAc
# Method in brief: as §1
# [18] = molecular target: Neu5Ac(a2-6)Gal(b1-4)GlcNAc(b1-2)Man(a1-3)[Neu5Ac(a2-6)Gal(b1-4)GlcNAc(b1-2)Man(a1-6)]Man(b1-4)GlcNAc(b1-4)GlcNAc
# Method in brief: as §1
# [19] = molecular target: Neu5Ac(a2-6)Gal(b1-4)GlcNAc(b1-2)Man(a1-3)[Neu5Ac(a2-6)Gal(b1-4)GlcNAc(b1-2)Man(a1-6)]Man(b1-4)GlcNAc(b1-4)[Fuc(a1-6)]GlcNAc
# Method in brief: as §1
# [20] = molecular target: Neu5Ac(a2-6)Gal(b1-4)GlcNAc(b1-2)Man(a1-6)Man(b1-4)GlcNAc(b1-4)GlcNAc
# Method in brief: as §1
# [21] = molecular target: Neu5Ac(a2-6)Gal(b1-4)GlcNAc(b1-2)Man(a1-6)[Gal(b1-4)GlcNAc(b1-2)Man(a1-3)]Man(b1-4)GlcNAc(b1-4)GlcNAc
# Method in brief: as §1
# [22] = molecular target: Neu5Ac(a2-6)Gal(b1-4)GlcNAc(b1-2)Man(a1-6)[GlcNAc(b1-2)Man(a1-3)]Man(b1-4)GlcNAc(b1-4)GlcNAc
# Method in brief: as §1
# [23] = molecular target: Neu5Ac(a2-6)Gal(b1-4)GlcNAc(b1-2)Man(a1-6)[Man(a1-3)]Man(b1-4)GlcNAc(b1-4)GlcNAc
# Method in brief: as §1
# [24] = molecular target: Neu5Ac(a2-6)Gal(b1-4)GlcNAc(b1-2)[Neu5Ac(a2-6)Gal(b1-4)GlcNAc(b1-4)]Man(a1-3)[GlcNAc(b1-4)][Neu5Ac(a2-6)Gal(b1-4)GlcNAc(b1-2)[Neu5Ac(a2-6)Gal(b1-4)GlcNAc(b1-6)]Man(a1-6)]Man(b1-4)GlcNAc(b1-4)GlcNAc
# Method in brief: as §1
# [25] = molecular target: Neu5Ac(a2-6)Gal(b1-4)GlcNAc(b1-2)[Neu5Ac(a2-6)Gal(b1-4)GlcNAc(b1-4)]Man(a1-3)[GlcNAc(b1-4)][Neu5Ac(a2-6)Gal(b1-4)GlcNAc(b1-4)Man(a1-6)]Man(b1-4)GlcNAc(b1-4)GlcNAc
# Method in brief: as §1
# [26] = molecular target: Neu5Ac(a2-6)Gal(b1-4)GlcNAc(b1-2)[Neu5Ac(a2-6)Gal(b1-4)GlcNAc(b1-6)]Man(a1-6)[Neu5Ac(a2-6)Gal(b1-4)GlcNAc(b1-2)Man(a1-3)][GlcNAc(b1-4)]Man(b1-4)GlcNAc(b1-4)GlcNAc
# Method in brief: as §1
# [27] = molecular target: Neu5Ac(a2-6)Gal(b1-4)GlcNAc(b1-3)Gal(b1-3)GlcNAc
# Method in brief: as §1
# [28] = molecular target: Neu5Ac(a2-6)Gal(b1-4)GlcNAc(b1-3)Gal(b1-4)GlcNAc
# Method in brief: as §1
# [29] = molecular target: Neu5Ac(a2-6)Gal(b1-4)GlcNAc(b1-3)Gal(b1-4)GlcNAc(b1-2)Man(a1-3)[Neu5Ac(a2-6)Gal(b1-4)GlcNAc(b1-3)Gal(b1-4)GlcNAc(b1-2)Man(a1-6)]GalNAc
# Method in brief: as §1
# [30] = molecular target: Neu5Ac(a2-6)Gal(b1-4)GlcNAc(b1-3)Gal(b1-4)GlcNAc(b1-3)Gal(b1-4)GlcNAc
# Method in brief: as §1
# [31] = molecular target: Neu5Ac(a2-6)Gal(b1-4)GlcNAc(b1-3)Gal(b1-4)GlcNAc(b1-3)Gal(b1-4)GlcNAc(b1-2)Man(a1-3)[Neu5Ac(a2-6)Gal(b1-4)GlcNAc(b1-3)Gal(b1-4)GlcNAc(b1-3)Gal(b1-4)GlcNAc(b1-2)Man(a1-6)]GalNAc
# Method in brief: as §1
# [32] = molecular target: Neu5Ac(a2-6)Gal(b1-4)GlcNAc(b1-3)Gal(b1-4)GlcNAc(b1-3)GalNAc
# Method in brief: as §1
# [33] = molecular target: Neu5Ac(a2-6)Gal(b1-4)GlcNAc(b1-3)Gal(b1-4)GlcNAc(b1-3)[Neu5Ac(a2-6)Gal(b1-4)GlcNAc(b1-3)Gal(b1-4)GlcNAc(b1-6)]GalNAc
# Method in brief: as §1
# [34] = molecular target: Neu5Ac(a2-6)Gal(b1-4)GlcNAc(b1-3)Gal(b1-4)GlcNAc(b1-6)[Gal(b1-3)]GalNAc
# Method in brief: as §1
# [35] = molecular target: Neu5Ac(a2-6)Gal(b1-4)GlcNAc(b1-3)Gal(b1-4)[Fuc(a1-3)]GlcNAc(b1-3)Gal(b1-4)[Fuc(a1-3)]GlcNAc
# Method in brief: as §1
# [36] = molecular target: Neu5Ac(a2-6)Gal(b1-4)GlcNAc(b1-3)GalNAc
# Method in brief: as §1
# [37] = molecular target: Neu5Ac(a2-6)Gal(b1-4)GlcNAc(b1-3)[Neu5Ac(a2-6)Gal(b1-4)GlcNAc(b1-6)]GalNAc
# Method in brief: as §1
binder,measurement,setting,value
B1,glycan array binding signal (z-score),[1],-0.33
same,glycan array binding signal (z-score),[2],-0.337
same,glycan array binding signal (z-score),[3],0.011
same,glycan array binding signal (z-score),[4],-0.121
same,glycan array binding signal (z-score),[5],0.335
same,glycan array binding signal (z-score),[6],0.032
same,glycan array binding signal (z-score),[7],-0.18
same,glycan array binding signal (z-score),[8],-0.231
same,glycan array binding signal (z-score),[9],-0.14
same,glycan array binding signal (z-score),[10],0.013
same,glycan array binding signal (z-score),[11],-0.235
same,glycan array binding signal (z-score),[12],-0.117
same,glycan array binding signal (z-score),[13],2.55
same,glycan array binding signal (z-score),[14],-0.148
same,glycan array binding signal (z-score),[15],-0.245
same,glycan array binding signal (z-score),[16],0.225
same,glycan array binding signal (z-score),[17],-0.189
same,glycan array binding signal (z-score),[18],-0.142
same,glycan array binding signal (z-score),[19],-0.099
same,glycan array binding signal (z-score),[20],-0.278
same,glycan array binding signal (z-score),[21],-0.04
same,glycan array binding signal (z-score),[22],-0.148
same,glycan array binding signal (z-score),[23],3.75
same,glycan array binding signal (z-score),[24],2.38
same,glycan array binding signal (z-score),[25],0.758
same,glycan array binding signal (z-score),[26],-0.296
same,glycan array binding signal (z-score),[27],-0.052
same,glycan array binding signal (z-score),[28],-0.238
same,glycan array binding signal (z-score),[29],1.28
same,glycan array binding signal (z-score),[30],0.087
same,glycan array binding signal (z-score),[31],0.104
same,glycan array binding signal (z-score),[32],-0.363
same,glycan array binding signal (z-score),[33],-0.235
same,glycan array binding signal (z-score),[34],0.291
same,glycan array binding signal (z-score),[35],0.048
same,glycan array binding signal (z-score),[36],-0.194
same,glycan array binding signal (z-score),[37],-0.309
